In the supplement of paper PMC12217912:
Some of the results follow. The full chains were built here from the parent and the listed change. Values near 0.05 are background.

B1: TEV protease; numbered along this chain (parent)
chain: MGESLFKGPRDYNPISSSICHLTNESDGHTTSLYGIGFGPFIITNKHLFRRNNGTLVVQSLHGVFKVKDTTTLQQHLVDGRDMIIIRMPKDFPPFPQKLKFREPQREERICLVTTNFQTKSMSSMVSDTSCTFPSGDGIFWKHWIQTKDGQCGSPLVSTRDGFIVGIHSASNFTNTNNYFTSVPKNFMELLTNQEAQQWVSGWRLNADSVLWGGHKVFMVKPEEPFQPVKEATQL

Variants of: B1
Experiment: raw area under fraction-flipped curve 0-4 h after induction (AUC4h, not background-subtracted), DNA-recorder readout of cleavage of the substrate (dimensionless); higher = more cleavage of the substrate by the protease variant
Conditions: temperature: 34 °C; time window: 0-4 h after rhamnose induction
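Note: Bxb1 expression induced with 0.2% (w/v) L-rhamnose at OD600 near 0.5, cultures sampled hourly, flipped fraction per protease–substrate barcode pair counted by paired-end Illumina sequencing.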

Variant | area with substrate ENLYEQS | area with substrate ENLYGQS | area with substrate ENLYHQS | area with substrate ENLYIQS | area with substrate ENLYKQS | area with substrate ENLYMQS | area with substrate ENLYNQS | area with substrate ENLYPQS | area with substrate ENLYQQS | area with substrate ENLYRQS | area with substrate ENLYSQS | area with substrate ENLYTQS | area with substrate ENLYVQS | area with substrate ENLYWQS | area with substrate ENLYYQS | area with substrate ENLYDQS | area with substrate ENLYLQS
E108D | 0.0961 | 0.046 | 0.0816 | 0.085 | 0.0727 | 0.0766 | 0.0745 | 0.0946 | 0.0597 | 0.061 | 0.0918 | 0.0678 | 0.126 | 0.0824 | 0.0796 |  | 
F101K |  |  | 0.0735 |  | 0.054 |  | 0.0727 | 0.06 |  |  | 0.0556 | 0.0496 |  |  |  | 0.0676 | 
T176A |  |  | 0.0606 |  | 0.0517 | 0.0597 | 0.059 | 0.0713 | 0.07 | 0.0692 |  |  | 0.0571 | 0.0561 |  | 0.0538 | 
I19N | 0.0551 | 0.0495 | 0.056 | 0.0812 |  | 0.0655 |  |  | 0.0534 | 0.0586 | 0.0106 | 0.0695 | 0.108 |  |  | 0.0421 | 0.0619
D149V | 0.082 |  | 0.0586 | 0.0752 |  |  | 0.0754 |  |  | 0.0631 | 0.0833 |  |  | 0.0873 |  | 0.0516 | 
Q151G | 0.0543 | 0.0823 | 0.0618 | 0.0964 | 0.0493 | 0.0665 | 0.0638 | 0.0511 | 0.0587 | 0.0629 | 0.0851 | 0.0811 | 0.116 | 0.0748 |  | 0.0666 | 0.078
H47M | 0.0588 | 0.0628 | 0.0624 | 0.0522 | 0.0647 | 0.0549 | 0.0616 | 0.0518 | 0.0547 | 0.0553 | 0.047 | 0.0606 |  | 0.047 | 0.0551 | 0.0594 | 
Y12G | 0.0595 | 0.0664 | 0.0668 |  | 0.0916 | 0.112 | 0.0669 | 0.0787 | 0.0659 | 0.0542 | 0.0687 |  | 0.125 | 0.0789 | 0.0616 | 0.0538 | 0.0672
K100I | 0.067 | 0.0618 | 0.0569 | 0.116 | 0.0714 | 0.101 | 0.0761 |  | 0.0448 | 0.052 | 0.0621 |  |  |  |  | 0.0581 | 
N175R | 0.05 | 0.0531 | 0.0838 | 0.0891 | 0.0564 |  | 0.0826 | 0.0808 | 0.0697 | 0.0696 | 0.082 |  | 0.157 | 0.0806 | 0.0572 | 0.0514 | 
F173M | 0.0848 | 0.0597 | 0.0527 | 0.182 | 0.0658 | 0.0809 |  | 0.0699 |  | 0.0666 | 0.0522 |  | 0.127 |  |  | 0.0512 | 0.0756
W199C | 0.0642 |  | 0.0527 | 0.0717 | 0.0558 |  | 0.063 | 0.0639 | 0.0502 |  | 0.0584 | 0.0636 |  | 0.0568 |  | 0.0492 | 0.0816
G202Y | 0.0594 | 0.0638 | 0.058 |  | 0.0564 |  | 0.0498 |  |  | 0.0615 | 0.0546 |  | 0.0754 | 0.055 | 0.0608 | 0.0585 | 0.0611
R160S |  |  |  |  |  |  |  |  | 0.0709 |  |  |  |  |  |  | 0.0552 | 0.115
G214Y | 0.0551 |  |  | 0.0955 |  |  | 0.0664 |  | 0.0516 |  | 0.0664 |  |  |  |  | 0.0588 | 
P14N | 0.0661 | 0.0667 | 0.0782 |  |  | 0.0719 | 0.0775 | 0.0582 | 0.063 | 0.0654 | 0.0774 |  | 0.0995 |  |  | 0.0612 | 
